Results: PubChem BioAssay AID1159614 (National Center for Advancing Translational Sciences (NCATS), 2016)
The whole screen tested about 45,000 compounds, of which about 65 (0.1%) were called active. The call rests on the fitted dose curve; in most records, active means well fitted activation curve with a large enough effect; inconclusive means small, poorly fitted or top-dose-only effect; inactive means no such curve, though single readings can be large or run the other way. The list shows a part of the results.

target: Galactocerebrosidase (Homo sapiens) (UniProt P54803); test: A Novel Cell-Based Assay to Identify Small Molecules for B -Galactocerebrosidase; settings: 145M-Twi-hGALC-G270D cells (Twitcher mouse brain line with human GALC G270D), HMU-beta-Gal fluorescence, 48 h; series mostly up to 57.5 µM; activation: at the top concentration; further: 0% is about no effect; nearly all actives have a fitted effect of over 65% in size
Chain of UniProt P54803 (P54803 whole entry, looked up): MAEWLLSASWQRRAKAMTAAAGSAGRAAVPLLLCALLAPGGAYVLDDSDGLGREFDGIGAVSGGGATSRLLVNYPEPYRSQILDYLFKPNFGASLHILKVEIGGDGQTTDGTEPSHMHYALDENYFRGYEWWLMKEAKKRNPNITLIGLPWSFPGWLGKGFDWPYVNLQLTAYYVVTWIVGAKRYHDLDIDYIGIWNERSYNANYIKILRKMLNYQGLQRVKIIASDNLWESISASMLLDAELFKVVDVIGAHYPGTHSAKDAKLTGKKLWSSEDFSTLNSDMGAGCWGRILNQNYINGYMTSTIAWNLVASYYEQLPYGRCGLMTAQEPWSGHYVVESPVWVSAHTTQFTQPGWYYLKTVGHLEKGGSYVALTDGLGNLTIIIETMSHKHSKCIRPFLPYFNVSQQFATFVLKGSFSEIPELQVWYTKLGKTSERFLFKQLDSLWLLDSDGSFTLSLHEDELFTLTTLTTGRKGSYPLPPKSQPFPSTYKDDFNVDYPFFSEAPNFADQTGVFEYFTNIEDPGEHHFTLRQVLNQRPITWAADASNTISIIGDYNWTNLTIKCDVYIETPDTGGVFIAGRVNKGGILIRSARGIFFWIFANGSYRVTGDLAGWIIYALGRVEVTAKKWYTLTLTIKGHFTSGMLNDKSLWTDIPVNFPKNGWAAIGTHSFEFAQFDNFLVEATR
In short: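 Mutant human GALC (G270D), stably expressed in a Twitcher mouse brain cell line lacking endogenous GALC, is measured in live-treated cells via 6-hexadecanoylamino-4-methylumbelliferyl-β-galactoside hydrolysis (0.1 mM final, pH 5.2) with fluorescent detection.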

activation, inactive:
Cc1ccc(-c2nn(CC(=O)Nc3cccc(C(F)(F)F)c3)c(=O)c3ccccc23)cc1 -10.7%
Cc1ccc(-c2nonc2NC(=O)c2ccco2)cc1C -14.7%
COc1cc(CNc2ccc3[nH]c(=O)[nH]c3c2)cc(Cl)c1OCc1ccccc1F -7.57%
Cc1ccc(-c2nc3ccccc3[nH]2)cc1NC(=O)COc1cccc(C)c1C 0.722%
COc1ccc(C)cc1NC(=O)CCn1nc(C)cc1C -29.9%
Cc1ccccc1C(=O)Nc1ccc(C(=O)N2CCCC(N(C)C)c3ccccc32)cc1 (stereo unspecified) -9.93%
Cc1cccc(C)c1NC(=O)CSCc1cnn(-c2ccccc2)c1-n1cccc1 -8.37%
COc1ccccc1Cn1c(CNS(=O)(=O)c2cccc([N+](=O)[O-])c2)nc2cccnc21 1.52%
NC(CSCC(=O)O)C(=O)O (stereo unspecified) -11.1%
CCC(Sc1nc2ccccc2c2nc(CCc3c(C)n[nH]c3C)nn12)C(=O)Nc1ccccc1F (stereo unspecified) -17%
COC(=O)c1ccc(NC(=O)CSc2n[nH]c(CC(C)C)n2)cc1 -9.69%
Cc1ccc(NC(=O)Cn2c(=O)c(CNc3ccccc3)cc3cc4c(cc32)OCCO4)cc1 -8.8%
CCN(CC)C(=O)C1=C(C)Nc2nc3ccccc3n2C1c1cccc(Cl)c1 (stereo unspecified) -12.8%
COc1ccc(CNC(=O)c2cc3cccc(OC)c3oc2=O)cc1 -13.5%
CC(=O)O[C@H]1CC[C@@]2(C)C(=CC[C@@H]3[C@@H]2CC[C@]2(C)C(C(C)=O)=CC[C@@H]32)C1 -16.9%
COc1ccc(NC(=O)CSC2=Nc3ccccc3C3=NC(CCC(=O)NCCc4ccccc4)C(=O)N23)c(OC)c1 (stereo unspecified) -13.3%
O=C(NCc1ccco1)c1ccc2c(c1)N(Cc1ccccc1F)C(=O)c1ccccc1S2=O (stereo unspecified) -7.33%
CCn1cc(C(=O)N2CCN(c3ccc(OC)cc3)CC2)c(=O)c2cc(S(=O)(=O)N(C)C3CCCCC3)ccc21 -10.7%
COc1cccc(CNC(=O)c2nn(C)c3c2CS(=O)(=O)c2ccccc2-3)c1 -12.9%
COc1ccc(CNC(=O)c2cc(C)nc3c2c(C)nn3-c2cccc(Cl)c2C)cc1 -12.4%
COc1cccc(NC(=O)C(CCSC)NC(=O)C2CCC(C)CC2)c1 (stereo unspecified) -4.01%
CC(C)CN(CCCNC(=O)c1cn(C)c2ccc(S(=O)(=O)N(C)C3CCCCC3)cc2c1=O)CC(C)C -5.99%
Cc1cccc(OC(=O)c2cc(-c3ccc(Cl)cc3)on2)c1C -11.3%
CCOc1ccc(C2=CC(c3cc(Br)ccc3F)n3ncnc3N2)cc1Cl (stereo unspecified) -9.36%
CCOc1ccc(S(=O)(=O)N(C(=O)c2ccncc2)c2ccc3oc(C)c(C(=O)OC)c3c2)cc1 -17.5%
COc1ccc(C)cc1NC(=O)CC(=O)Nc1ccc2nc3n(c(=O)c2c1)CCCCC3 -12.9%
CC(C)[C@@H]1CC[C@@H](C)CC1=O 13.6%
CC(=O)c1cc2ccccc2s1 -19.3%
O=C(COC(=O)c1cc(-c2ccccc2)nc2c(Cl)cccc12)c1ccc(F)cc1 -24.7%
O=C(NCCc1csc(-c2ccc(F)cc2)n1)c1c(F)cccc1Cl -12.9%
CC(C)C(=O)Nc1cccc(C2CN3CCSC3=N2)c1 (stereo unspecified) -5.59%
Cc1nn(CC(=O)Nc2cccc(C(F)(F)F)c2)c(=O)c2nn(-c3ccccc3)c(C)c12 -20.6%
CN(C(=O)CSc1nc2ccccc2n1Cc1cccc(C(F)(F)F)c1)c1ccccc1 -46.8%
CC(C)CSc1oc(-c2ccco2)nc1S(=O)(=O)c1ccc(Br)cc1 -6.57%
CCOc1ccc(-n2c(=O)c3c(C)c(C)sc3n(Cc3cc(=O)n4cc(Cl)ccc4n3)c2=O)cc1 -1.39%
CC(=O)c1cccc(NS(=O)(=O)c2ccc3[nH]c4c(c3c2)CCCCC4)c1 -6.46%
COc1ccc(CNC(=O)Cn2c(=O)n3nc(-c4ccc(OC)cc4)nc3c3ccccc32)cc1 -15.4%
O=C(O)/C=C(\CC(=O)O)C(=O)O -6.52%
CCOc1ccc(C(=O)Nc2ccc3nc(Nc4cccc(C(F)(F)F)c4)cc(C)c3c2)cc1OCC -16.2%
COc1ccc(-c2c(C)nn3c(C(F)(F)F)cc(-c4ccc(C)cc4)nc23)cc1 -1.92%
COc1ccc(-c2noc(CSc3nnc(C)n3-c3ccc(F)cc3)n2)cc1 -6.42%
Cc1cn2c(=O)c(S(=O)(=O)Nc3ccc(OC(F)(F)F)cc3)c(C)nc2s1 -17.4%
COc1ccc(NC(=O)C(c2ccccc2)N(C)C(=O)/C=C\c2ccc3c(c2)OCO3)cc1 (stereo unspecified) -13.8%
CCOc1ccc(NC(=O)N2CC3CCCN3c3ccccc32)cc1 (stereo unspecified) -8.24%
CC(=O)NNc1ncnc2c1cnn2-c1ccccc1 -12.9%
Cc1ccccc1OCC(=O)Nc1c(C(=O)Nc2ccccc2F)oc2ccccc12 -15.2%
Cc1ccccc1NS(=O)(=O)c1ccc2[nH]cc(C(=O)NCCc3ccccc3)c(=O)c2c1 -15%
COC(=O)c1cnc(N2CCN(c3ccc(OC)cc3)CC2)c2ccccc12 -10.9%
COC(=O)c1c(-c2ccc(Cl)cc2)noc1N1CCN(c2ccc(C(C)=O)cc2)CC1 -16.3%
CCCNC(=O)CCc1c(C)nc2nc(CNC(=O)c3ccccc3)nn2c1C -6.68%
CCCCc1ccc(NC(=O)CSc2nc3ccccc3nc2N2CCCCC2)cc1 -1.96%
CCOC(=O)c1ccc(NC(=O)CS(=O)(=O)Cc2nc(-c3ccc(C)cc3)oc2C)cc1 -16.8%
Cc1ccc(NC(=O)CN2C(=O)CC(c3ccco3)Sc3ccccc32)cc1Cl (stereo unspecified) 1.54%
COc1ccc(NC(=O)c2oc3ccccc3c2NC(=O)c2cc3ccccc3o2)c(OC)c1 6.15%
Cc1ccc(F)cc1NC(=O)CSc1nc(-c2cccs2)cc(C(F)(F)F)n1 -10.2%
CCOc1ccc(NC(=O)C(CC)n2nc(C)c3c(C)n(-c4ccccc4)nc3c2=O)cc1 (stereo unspecified) -12.9%
COc1cc(C(CC(=O)NCc2ccccc2Cl)N2Cc3ccccc3C2=O)cc(OC)c1OC (stereo unspecified) -8.51%
CCn1c2ccccc2c2cc(CN3CCN(Cc4cccc(Cl)c4)CC3)ccc21 -23.2%
COc1cccc(NC(=O)CCNC(=O)Cn2cnc3ccccc3c2=O)c1 -32.7%
COC(=O)c1ccccc1NC(=O)CCCn1nc(C)c2c(C)n(-c3ccccc3)nc2c1=O -5.21%
CCOc1ccccc1CNC(=O)c1ccc(-n2c(C)cc3c2CCC(C)C3)cc1 (stereo unspecified) -19.2%
Cc1ccc(-c2onc(C)c2C)cc1S(=O)(=O)N1CCN(c2ccccc2F)CC1 -17.9%
COc1cc(OC)c(NC(=O)Nc2ccc3c(c2)N(C)C(=O)c2ccccc2S3)cc1Cl -20.8%
COc1cc(OC)cc(-n2c(=O)c3sccc3n(Cc3ccc(F)cc3)c2=O)c1 1.81%
Cc1cc(Cl)ccc1NC(=O)CSc1nc2c(c(=O)[nH]1)CCC2 -10.3%
CCCOc1ccc(Oc2nc(NC)nc(N3CCOCC3)n2)nn1 8.13%
COC(=O)c1sc(N2C(=O)c3oc4ccc(C)cc4c(=O)c3C2c2ccc(OC)cc2)nc1C (stereo unspecified) -15.3%
Cc1ccc(NC(=O)C(=O)NCC(c2cccnc2)N2CCN(Cc3ccccc3)CC2)cc1Cl (stereo unspecified) -10.7%
Cc1ccc(C(=O)O)cc1NC(=O)c1nsc2ccccc12 -1.31%
Cc1ccc(CNC(=O)c2cc(-c3ccc(C)c(C)c3)nc3ccccc23)cc1 4.98%
COc1ccc(CCNC(=O)CN2C(=O)COc3ccc(S(=O)(=O)N4CCCC4)cc32)cc1OC -4.5%
Cc1ccc(Cl)cc1N1CCN(c2nc3ccccc3c3nc(-c4cccnc4)nn23)CC1 1.07%
CCOc1ccc(NC(=O)Cn2c(=O)n(CCCCC(=O)NCCc3ccc(Cl)cc3)c(=O)c3ccccc32)cc1 0.638%
CCOc1ccc(C(=O)Nc2ccc3oc(-c4ccc(C)cc4C)nc3c2)cc1Br 0.634%
O=C(Nc1cccc(Cl)c1)N1CC2CCCN2c2ccccc21 (stereo unspecified) -14.2%
O=C(C1CCC(CNS(=O)(=O)c2ccc(Br)s2)CC1)N1CCN(c2ccc(F)cc2)CC1 (stereo unspecified) -33%
CCc1ccccc1NC(=O)CC1NCCNC1=O (stereo unspecified) -11.6%
COc1ccc(-c2nc3n(n2)C(c2ccccc2OC)C(C(=O)Nc2cccnc2)=C(C)N3)cc1 (stereo unspecified) -14.7%
CCOc1ccccc1NC(=O)c1c2c(nc3ccccc13)C(=O)N(C1CCCCC1)C2 -8.77%
CCOc1ccc(-n2c(SCC(=O)NCc3ccccc3)nc3n[nH]c(C)c3c2=N)cc1 -6.98%
CCOC(=O)N1CCc2c(sc(NCc3ccc(N(CC)CC)cc3)c2C(=O)Nc2cc(OC)ccc2OC)C1 -15.7%
O=S(=O)(NCC(c1cccs1)S(=O)(=O)c1ccccc1)c1ccccc1 (stereo unspecified) -15.7%
Nc1nnc(-c2cccc(Cl)c2Cl)c(N)n1 -18.2%
COc1ccc(CNC(=O)c2ccc3c(c2)nc2n3CCCCC2)cc1 -15.2%
Cc1ccc(NS(=O)(=O)c2ccc3c(c2)N(C)C(=O)CC(=O)N3C)cc1Cl -3.01%
Cc1ccc(-n2c(=O)c3ccc(C(=O)NCc4ccco4)cc3n(CC(=O)Nc3ccc(C)c(F)c3)c2=O)cc1 -1.37%
CCC1CN(C(=O)N2CCC(C(=O)N3CCN(c4ccccc4)CC3)CC2)c2ccccc2O1 (stereo unspecified) -8.2%
Cc1cc(C)n(C(C)CC(=O)Nc2ccc(Cl)cc2C)n1 (stereo unspecified) -6.75%
CCCCC(=O)N1CCc2cc(OC)c(OC)cc2C1COc1ccc(C(=O)OCC)cc1 (stereo unspecified) -16.5%
Cc1cccc(C(=O)n2nc(C)c(S(=O)(=O)N3CCOCC3)c2C)c1 45.8%
COc1ccc(Cn2ccc3nc(C)c(C(=O)Nc4cc(OC)c(OC)c(OC)c4)cc3c2=O)cc1 -27%
CCOc1ccccc1NS(=O)(=O)c1cc2[nH]c(=O)c(=O)[nH]c2cc1C 1.44%
CCOc1ccc(Sc2cc(C(=O)NCc3ccc(C)cc3)c3ccccc3n2)cc1 -10.1%
CC[C@@]1(O)C(=O)OCc2c1cc1n(c2=O)Cc2cc3c(CN(C)C)c(O)ccc3nc2-1 -6.7%
CCOC(=O)c1cc(-c2ccc(C)cc2)n(CCCC(=O)Nc2cc(C)ccc2C)c1 -23.2%
Cc1cc(C)c(S(=O)(=O)NCCc2sc3nc(-c4ccc(F)cc4)nn3c2C)c(C)c1 0.545%
